Assay results reported in the supplement of paper PMC7125110.
± gives the standard error. This sample is rich in variants without activity.

B1: glmS ribozyme (parent)
chain: AUAAAAGCGCCAGAACUACAGAAAUGUAGUUGACGAGGAGGAGGUUUAUCGAAUUUUCGGCGGAUGCCUCCAAA

Columns and labels:
Conditions in all cases: with glucosamine-6-phosphate
glucosamine-6-phosphate [1] = variants of: B1; assay: self-cleavage kobs at 640 uM GlcN6P; higher = faster cleavage; RNA array
Procedure, shortened: (§1)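 Using a hybridised Cy3 probe at 37 °C, barcoded ribozyme variants transcribed in situ by E. coli RNA polymerase on sequenced MiSeq chips were monitored across tiles imaged over ~14 h. The flow contained glucosamine-6-phosphate from 40 μM to 10 mM in HEPES/KCl/Mg(OAc)2 buffer. Signals were normalised to baseline and to non-cleaving reference variants before per-tile medians were fit to one- or two-exponential decays to yield kobs. Weighted Michaelis–Menten fits across concentrations gave kcat and KM.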

glucosamine-6-phosphate [2] = variants of: B1; assay: self-cleavage kobs at 160 uM GlcN6P; higher = faster cleavage; RNA array
Procedure, shortened: as §1

glucosamine-6-phosphate [3] = variants of: B1; assay: self-cleavage kobs at 2500 uM GlcN6P; higher = faster cleavage; RNA array
Procedure, shortened: as §1

glucosamine-6-phosphate [4] = variants of: B1; assay: self-cleavage kobs at 10000 uM GlcN6P; higher = faster cleavage; RNA array
Procedure, shortened: as §1

Variant	self-cleavage kobs at 640 uM GlcN6P (glucosamine-6-phosphate [1])	self-cleavage kobs at 160 uM GlcN6P (glucosamine-6-phosphate [2])	self-cleavage kobs at 2500 uM GlcN6P (glucosamine-6-phosphate [3])	self-cleavage kobs at 10000 uM GlcN6P (glucosamine-6-phosphate [4])
AUAAAAGCGCCAGAACUACAGAAAUGUAGUUGACGAGGAGGAGGUUUAUCGAAUUUACGGCGUAUGCCUCCAAA	< 1e-05 s⁻¹			
AUAAAAGCGCCAGAACUACAGAAAUGUAGUUGACGAGGAGGAGGUUUAUCGAAUUUCCGGCGGAUGCCUCCAAA	5.24e-05 ± 1.5e-06 s⁻¹	1.34e-05 ± 2.2e-06 s⁻¹	0.000136 ± 3.2e-06 s⁻¹	0.000236 ± 4.4e-06 s⁻¹
AUAAAAGCGCCAGAACUACAGAAAUGUAGUUGACGAGGAGGAGGUUUAUCGAAUUUCCUGCGGAUGCCUCCAAA	< 1e-05 s⁻¹		< 1e-05 s⁻¹	
AUAAAAGCGCCAGAACUACAGAAAUGUAGUUGACGAGGAGGAGGUUUAUCGAAUUUCCGGCGUGUGCCUCCAAA	< 1e-05 s⁻¹	< 1e-05 s⁻¹		
AUAAAAGCGCCAGAACUACAGAAAUGUAGUUGACGAGGAGGAGGUUUAUCGAAUUUGCGGCGGUUGCCUCCAAA	< 1e-05 s⁻¹	< 1e-05 s⁻¹	< 1e-05 s⁻¹	< 1e-05 s⁻¹
AUAAAAGCGCCAGAACUACAGAAAUGUAGUUGACGAGGAGGAGGUUUAUCGAAUUUGCGGCGGAUGGCUCCAAA	0.000478 ± 0.00018 s⁻¹			
AUAAAAGCGCCAGAACUACAGAAAUGUAGUUGACGAGGAGGAGGUUUAUCGAAUUUGCGGCGGAUGCCUCUAAA	3.26e-05 ± 1.2e-05 s⁻¹		1.65e-05 ± 8e-06 s⁻¹	4.47e-05 ± 6.6e-06 s⁻¹
AUAAAAGCGCCAGAACUACAGAAAUGUAGUUGACGAGGAGGAGGUUUAUCGAAUUUUAGCAGGAUGCCUCCAAA	< 1e-05 s⁻¹	< 1e-05 s⁻¹		
AUAAAAGCGCCAGAACUACAGAAAUGUAGUUGACGAGGAGGAGGUUUAUCGAAUUUUAGGCGGAUUCCUCAAAA	< 1e-05 s⁻¹		< 1e-05 s⁻¹	
AUAAAAGCGCCAGAACUACAGAAAUGUAGUUGACGAGGAGGAGGUUUAUCGAAUUUUAGGCGGAUGCCCCCAAA	4.91e-05 ± 1e-05 s⁻¹	3.58e-05 ± 1.2e-05 s⁻¹	9.46e-05 ± 2.2e-05 s⁻¹	0.000107 ± 1.5e-05 s⁻¹
AUAAAAGCGCCAGAACUACAGAAAUGUAGUUGACGAGGAGGAGGUUUAUCGAAUUUUGGGCGGAUGCCUCGAAA	3.12e-05 ± 1.3e-05 s⁻¹		3.56e-05 ± 1.5e-05 s⁻¹	
AUAAAAGCGCCAGAACUACAGAAAUGUAGUUGACGAGGAGGAGGUUUAUCGAAUUUUGUGCGGAUGCGUCCAAA	4.54e-05 ± 1.7e-05 s⁻¹			
AUAAAAGCGCCAGAACUACAGAAAUGUAGUUGACGAGGAGGAGGUUUAUCGAAUUUUCCGUGGAUGCCUCCAAA	< 1e-05 s⁻¹	< 1e-05 s⁻¹		
AUAAAAGCGCCAGAACUACAGAAAUGUAGUUGACGAGGAGGAGGUUUAUCGAAUUUUCUGCCGAUGCCUCCAAA	< 1e-05 s⁻¹	< 1e-05 s⁻¹	< 1e-05 s⁻¹	< 1e-05 s⁻¹
AUAAAAGCGCCAGAACUACAGAAAUGUAGUUGACGAGGAGGAGGUUUAUCGAAUUUUCGCUGGAUGCCUCCAAA	< 1e-05 s⁻¹	< 1e-05 s⁻¹	< 1e-05 s⁻¹	< 1e-05 s⁻¹
